Test results: PubChem BioAssay AID1347073 (National Center for Advancing Translational Sciences (NCATS), 2019)
In all, about 45,000 compounds went through this assay and about 200 (0.44%) were called active. About 7% were inconclusive and are not listed. The call rests on the fitted dose curve; in most records, active means well fitted activation curve with a large enough effect; inconclusive means small, poorly fitted or top-dose-only effect; inactive means no such curve, though single readings can be large or run the other way. This is one part of the list.

Experiment: qHTS of TDP-43 Inhibitors: NCGC Sytravon Library Screen; further: 0% is about no effect; nearly all actives have a fitted effect of over 55% in size
Details: yeast TDP-43 toxicity rescue, BacTiter-Glo growth, 24 h; series mostly up to 46.1 µM; growth rescue (activation): at the top concentration
Procedure, shortened: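 TDP-43-expressing yeast, pregrown in raffinose, seeded at OD600 0.02 in galactose medium with compound for 24 hr at 30 deg C. Growth read by BacTiter-Glo luminescence, so rescue of toxicity appears as activation.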

SMILES | growth rescue (activation) | Potency
O=C(C1CN(S(=O)(=O)c2ccccc2)CCN1S(=O)(=O)c1ccccc1)N1CCCCCC1 (stereo unspecified) | inactive: 5.42% | 
Cc1cccc(C)c1-n1c(SCC(=O)N2CC(=O)Nc3ccccc32)nc2ccccc2c1=O | inactive: 5.37% | 
CCN(CC)CCOC(=O)c1ccc(N/C=C(/C#N)c2nc(-c3ccc(OC)c(OC)c3)cs2)cc1 | inactive: -83% | 
Cc1cc(Nc2ccccc2O)c2ccccc2n1 | inactive: 13.1% | 
COc1ccc(C2CCCCCN2Cc2nc3ccccc3c(=O)n2CC(N)=O)cc1 (stereo unspecified) | inactive: -0.819% | 
CCN(CC)S(=O)(=O)c1ccc(N2CCOCC2)c(NS(=O)(=O)c2ccc(C)cc2)c1 | inactive: -8.97% | 
CC(C)CN(CC(C)C)CC(O)CN(c1ccccc1)S(=O)(=O)c1ccccc1[N+](=O)[O-] (stereo unspecified) | inactive: -5.5% | 
COc1ccc(C(C(=O)NCC2CCCO2)N(C(=O)CNC(=O)c2cccs2)c2ccccc2)cc1OC (stereo unspecified) | inactive: 2.18% | 
CN(C)c1nc(C(=O)O)nc(N2CCOCC2)n1 | inactive: 10.2% | 
COCCN(CCOC)Cc1c(O)ccc2c1O/C(=C\c1ccc(C)o1)C2=O | inactive: -7.61% | 
CN1CCN(C(N)=NC(=O)c2ccccc2)CC1 | inactive: -14.1% | 
CCOC(=O)c1c(C)[nH]c(C(=O)COC(=O)CNC(=O)c2ccc(Br)cc2)c1C | inactive: 22.1% | 
CC1S/C(=N/N=C2CCCCC2)NC1=O (stereo unspecified) | inactive: 0.0251% | 
CN(C)S(=O)(=O)c1ccc(Cl)c(-c2nnc3n2CCCCC3)c1 | inactive: 4.89% | 
Cc1ccc(S(=O)(=O)Nc2nc3ccccc3nc2NCC2CCCO2)c(C)c1 (stereo unspecified) | inactive: 30.5% | 
Cc1ccccc1CCNC(=O)C1CC(O)CN1C(=O)Nc1ccccc1 (stereo unspecified) | inactive: -2.19% | 
COc1ccc(C(=O)Nc2ccc(-c3nc4cc(C)ccc4o3)c(O)c2)cc1 | inactive: 2.94% | 
CCN1CCC(N(Cc2ccc(F)cc2)C(=O)Nc2ccc(C)c(F)c2)CC1 | inactive: 14% | 
CCOC(=O)C1CCN(C(=O)c2ccccc2N(C)S(=O)(=O)c2ccccc2)CC1 | inactive: -1.36% | 
CNS(=O)(=O)c1cc(NC(=O)c2cnc(SC)n2-c2ccccc2)ccc1C | inactive: 10.6% | 
CCOc1cc(/C=N/NC(=O)c2cc(-c3ccccc3)nc3ccccc23)ccc1O | inactive: 1.5% | 
COc1cc(Cl)c(NC(=O)CN2C(=O)c3cccnc3Sc3ccccc32)c(OC)c1 | inactive: 10.5% | 
Cc1nc2ccc(S(=O)(=O)NCC(=O)NCc3ccc(Cl)cc3)cc2s1 | inactive: 17.2% | 
Cn1nnc2c[n+](CC(=O)c3ccc(Cl)cc3)cc(Br)c21 | inactive: 21.3% | 
CS(=O)(=O)c1ccc(SCC(=O)NC2CCS(=O)(=O)C2)c([N+](=O)[O-])c1 (stereo unspecified) | inactive: -15.5% | 
O=C(COC(=O)C(O)c1ccccc1)c1ccc2c(c1)OCCO2 (stereo unspecified) | inactive: 32.6% | 

SMILES | growth rescue (activation) | Potency
O=C1NC2(CCCCCC2)C(=O)N1CCS(=O)(=O)Oc1ccccc1 | inactive: 4.93% | 
CN(C)S(=O)(=O)c1cccc(C(=O)Nc2ccccc2[N+](=O)[O-])c1 | inactive: 17.9% | 
NC(=O)c1ccc(NC(=O)COC(=O)C2CC3C=CC2C3)cc1 (stereo unspecified) | inactive: 15.3% | 
CC(C)C1CC(CCNCc2ccc3c(c2)OCO3)(c2ccccc2)CCO1 (stereo unspecified) | inactive: 14.3% | 
C=CCn1c(SCC(=O)Nc2cc(C)on2)nnc1-c1ccccc1F | inactive: 3.09% | 
O=C(O)C1=C(Nc2ccccc2)OCC1=O | inactive: 1.81% | 
COc1cccc(C(=O)NCCNC(=O)c2ccccn2)c1 | inactive: -8.64% | 
O=C(C1=NN(c2ccccc2)C2C(=O)N(c3ccccc3)C(=O)C12)c1ccccc1 (stereo unspecified) | inactive: 8.23% | 
COc1ccc(/C=N/NC(=O)c2cc[n+]([O-])cc2)cc1 | inactive: 18.4% | 
CC(=O)Nc1ccc(S(=O)(=O)Nc2ccc(Cc3ccncc3)cc2)cc1 | inactive: -22.7% | 
COc1ccc(CCN2C(=O)c3ccccc3NC2c2cc(Cl)c(O)c(OC)c2)cc1 (stereo unspecified) | inactive: 13.9% | 
CN1CCN(c2ccc(CNC(=O)C3Cc4c(-c5ccccc5)ccnc4O3)cc2)CC1 (stereo unspecified) | inactive: 3.06% | 
CCOC(=O)c1ccccc1OC(=O)CS(=O)c1ccccc1[N+](=O)[O-] (stereo unspecified) | inactive: 22.4% | 
CC(C)[C@H](NC(=O)Cc1ccccc1)C(=O)OCc1cc(=O)n2c(n1)sc1ccccc12 | inactive: 14.9% | 
CC(C)OC(=O)CSc1nc(N)c(C#N)cc1C#N | inactive: 14.3% | 
Cc1nc(NC(=O)/C=C/c2ccco2)sc1C | inactive: -13.4% | 
COc1ccc(-n2nnc(-c3nc(-c4ccc5c(c4)OCO5)no3)c2C)cc1Cl | inactive: -3.54% | 
COc1ccc(/C=C2/SC(=O)N(CCNC(=O)CC(NC(C)=O)c3ccccc3)C2=O)cc1 (stereo unspecified) | inactive: -1.15% | 
Cc1ccc2c(C)nc(/N=C(\N)NC(=O)N3c4ccccc4Sc4ccccc43)nc2c1 |  | inactive
Cc1ccc(NC(=O)NC(C)c2c(-n3cccc3)sc(C)c2C)c(C)c1 (stereo unspecified) | inactive: 16.3% | 
CCC1Oc2ccccc2N(CC(=O)N2CCOCC2)C1=O (stereo unspecified) | inactive: -1.09% | 
CCN(CC)S(=O)(=O)c1cc(C(=O)OCC(=O)Nc2cccc(S(=O)(=O)N(C)C)c2)ccc1F | inactive: -0.477% | 
O=C(Nc1cccc(C(F)(F)F)c1)Nc1nnc([C@@H]2C[C@H](O)[C@@H](CO)O2)s1 | inactive: 4.66% | 
CC(C(=O)OCC(=O)c1ccc([N+](=O)[O-])cc1)N1C(=O)C2C3CCC(C3)C2C1=O (stereo unspecified) | inactive: 0.375% | 
CN1CCN(Cc2nc(-c3cccs3)no2)CC1c1ccccc1 (stereo unspecified) | inactive: -16.5% | 
